# Reference: publication PMC4336329 (PLoS ONE, 2015)
# About 2,200 (0.71%) of roughly 310,000 compounds showed an effect of 50% or more. The effect is printed as a negative number. The list shows a part of the results.
# Target: human ether-à-go-go-related gene (hERG) potassium channel (human, UniProt Q12809)
# Assay: primary screen, population patch clamp on CHO cells stably expressing hERG
# human ether-à-go-go-related gene (hERG) potassium channel, sequence (Q12809 whole entry, looked up): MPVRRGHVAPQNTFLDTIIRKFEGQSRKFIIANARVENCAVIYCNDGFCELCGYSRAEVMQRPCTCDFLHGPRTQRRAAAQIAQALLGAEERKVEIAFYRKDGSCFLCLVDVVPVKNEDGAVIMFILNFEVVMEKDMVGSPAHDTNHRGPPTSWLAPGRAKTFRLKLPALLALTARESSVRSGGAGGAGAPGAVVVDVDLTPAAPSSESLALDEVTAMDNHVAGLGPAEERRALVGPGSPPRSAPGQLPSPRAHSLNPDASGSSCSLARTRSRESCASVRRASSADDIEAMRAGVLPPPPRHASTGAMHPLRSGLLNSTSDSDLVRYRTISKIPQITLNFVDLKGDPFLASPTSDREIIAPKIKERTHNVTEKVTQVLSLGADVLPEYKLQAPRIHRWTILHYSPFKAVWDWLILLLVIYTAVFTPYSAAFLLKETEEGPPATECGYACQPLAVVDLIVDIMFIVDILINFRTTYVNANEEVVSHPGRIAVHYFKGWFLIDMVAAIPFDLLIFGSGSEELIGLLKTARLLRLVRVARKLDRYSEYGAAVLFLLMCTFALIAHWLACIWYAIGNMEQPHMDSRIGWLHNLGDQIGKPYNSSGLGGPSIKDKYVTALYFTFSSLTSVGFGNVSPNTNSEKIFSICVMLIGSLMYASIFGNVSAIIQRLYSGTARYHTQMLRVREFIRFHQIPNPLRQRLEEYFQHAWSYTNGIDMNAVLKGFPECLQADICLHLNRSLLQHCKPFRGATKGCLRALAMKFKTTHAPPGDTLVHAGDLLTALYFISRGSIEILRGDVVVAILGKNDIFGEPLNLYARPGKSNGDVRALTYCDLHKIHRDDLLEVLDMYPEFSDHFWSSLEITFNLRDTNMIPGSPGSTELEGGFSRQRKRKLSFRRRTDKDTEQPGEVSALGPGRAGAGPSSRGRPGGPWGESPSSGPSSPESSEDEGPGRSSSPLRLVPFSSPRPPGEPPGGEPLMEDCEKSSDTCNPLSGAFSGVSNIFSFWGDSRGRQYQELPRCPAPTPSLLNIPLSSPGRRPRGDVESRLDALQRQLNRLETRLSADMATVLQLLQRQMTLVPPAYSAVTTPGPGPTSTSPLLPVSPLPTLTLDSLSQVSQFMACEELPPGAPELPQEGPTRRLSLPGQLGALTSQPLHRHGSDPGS
row,Structure (SMILES),"hERG current change (%, negative = inhibition) at 1uM [%]"
1,O=C(N/N=C/c1c[nH]c2ccccc12)c1cc(-c2cccc3ccccc23)n[nH]1,6.57
2,C/C(CC(=O)Nc1cccc2c1CCCC2)=N\NC(=O)c1cccc2ccccc12,15.2
3,COC(=O)c1ccc(NC(=O)C(=O)N2CCN(C(=S)NCCc3ccccc3)CC2)cc1,-2.93
4,COc1ccc(N2CCN(C(c3cc4ccc(C)cc4[nH]c3=O)c3nnnn3C3CCCC3)CC2)cc1 (stereo not shown),3.09
5,COC(=O)C/C=C/[C@@H](C)[C@@H](/C=N/O[C@@H](C)c1cn([C@H](CO)Cc2ccccc2)nn1)NS(=O)(=O)c1ccc(C)cc1,3.68
6,COc1ccc(CCNC(=O)c2c(-c3ccccc3Cl)noc2C)cc1,16.9
7,CCOCCCNC(=O)c1c(C)c(C(=O)OCC)n(C)c1C,11.5
8,CC(Oc1ccc(Cl)cc1Cl)C(=O)Nc1ccc(N2CCN(C)CC2)cc1 (stereo not shown),0.566
9,O=C(CSc1nc2scc(-c3ccccc3)c2c(=O)[nH]1)N1CCOCC1,8.08
10,O=C1C(Nc2ccccc2)=C/C(=N/S(=O)(=O)c2cccs2)c2ccccc21,10.9
11,C=CCOc1ccccc1CN1CCC(Oc2ccc(C(=O)N3CCCCC3)cc2)CC1,-3.91
12,COc1ccc(NC(=O)N2C[C@@H]3C[C@@H](C2)c2cccc(=O)n2C3)c(OC)c1,-8.09
13,COc1ccc(CC(=O)Nc2ccc(N3CCN(c4ccc(OC)cc4)CC3)c(C#N)c2)cc1,11.6
14,COCOc1cc(O)c(C(=O)/C=C/c2ccccc2)c(OCOC)c1,11.2
15,CC(=O)NNc1nc(-c2ccc(NC(C)=O)cc2)cs1,17.9
16,CC(Oc1ccccc1)c1nnc(SCC(=O)NC2CC2)n1C (stereo not shown),16.1
17,S=c1[nH]nc(-c2cc(-c3ccccc3)n[nH]2)n1/N=C/C=C/c1ccco1,15.2
18,COc1ccc(OCCCCN(C)Cc2ccccc2)cc1.O=C(O)C(=O)O,6.99
19,CCOP(=O)(c1ccccc1)C1(C#N)CCCC1 (stereo not shown),16.9
20,CCn1cc(CNC(=O)C2CCC(=O)N(Cc3ccccc3F)C2)cn1 (stereo not shown),15.8
21,CC1=C(C(=O)Nc2cc(C(=O)NCCC(C)C)ccc2C)SCCO1,9.03
22,Cc1cccc(NC(=O)COC(=O)c2ccccc2-c2nc3ccccc3s2)c1C,3.57

row,Structure (SMILES),"hERG current change (%, negative = inhibition) at 1uM [%]"
1,CCc1ccc(NC(=O)c2sc3nc4n(c(=O)c3c2C)CCC4)cc1,6.34
2,O=C(NCc1ccccc1)N1CCN(c2ccc(F)cc2)CC1,3.07
3,CCc1ccc(/C=C2/SC(=S)N(CCCC(=O)Nc3ccccc3C(=O)O)C2=O)cc1,5.43
4,COc1ccc(-c2oc3ccccc3c2C(=O)OCc2ccc(O)cc2)cc1,6.5
5,c1cncc(C(c2nnnn2C2CCCCC2)N2CCN3CCCC3C2)c1 (stereo not shown),14.3
6,O=C(COc1cccc(C(F)(F)F)c1)Nc1ccc2[nH]ncc2c1,18.8
7,COc1ccc(C2/C=C\CN(C(=O)NC(C)C)CC(=O)N2Cc2ccc(F)cc2)cc1 (stereo not shown),11.4
8,O=C(CNC(=O)C12CC3CC(CC(C3)C1)C2)OCc1ccc(F)cc1Cl,7.61
9,COC(=O)c1[nH]c2cc(OC)ccc2c1NC(=O)CCN1CCSCC1,16.7
10,O=C(COC(=O)c1ccccc1Cl)NC(=O)NCc1ccccc1,9.65
11,CC(C)N(CCNC(=O)C1CCN(S(=O)(=O)N2CCOCC2)CC1)Cc1ccccc1,8.89
12,CCS(=O)(=O)N1CCC(C(=O)Nc2cccc(F)c2)CC1,7.11
13,CN(CC(=O)Nc1ccc(N2CCOCC2)cc1)CC(=O)Nc1ccc(Cl)cc1[N+](=O)[O-],5.96
14,Cc1ccc(-n2nc3c(=O)n(CC(=O)NC4CCCCC4)nc(C)c3c2C)cc1,17.9
15,CCc1ccccc1NC(=O)Cn1nnc(-c2cccnc2)n1,6.37
16,CCc1nnc(NC(=O)CSc2nnc(-c3ccccc3O)n2-c2ccc(C)cc2)s1,13.7
17,O=C(Nc1cccnc1)c1cc(-c2ccc(Cl)cc2Cl)on1,-2.82
18,CN(Cc1cnccn1)C(=O)CC1C(=O)NCCN1Cc1cccc(Oc2ccccc2)c1 (stereo not shown),4.94
19,CN(C)Cc1c(O)ccc2c(-c3ccccc3)cc(=O)oc12,14.7
20,COc1ccc(CNC(=O)Nc2cccc(Cl)c2)cc1,9.5
21,Cc1ccc(CN2CCN(C(=O)CCC(=O)Nc3nnc(C(C)C)s3)CC2)c(C)c1,13.3
